Tested on: ECM of Caco-2 cells
Test: ECM binding by immunofluorescent imaging in Caco-2 cells
Settings: varying concentrations, 37° C., two hours

B1: API-E2: bovine lactoferrin purified from raw, untreated milk by cation exchange chromatography and filtration according to Example 1 (protein)
chain: APRKNVRWCTISQPEWFKCRRWQWRMKKLGAPSITCVRRAFALECIRAIAEKKADAVTLDGGMVFEAGRDPYKLRPVAAEIYGTKESPQTHYYAVAVVKKGSNFQLDQLQGRKSCHTGLGRSAGWVIPMGILRPYLSWTESLEPLQGAVAKFFSASCVPCIDRQAYPNLCQLCKGEGENQCACSSREPYFGYSGAFKCLQDGAGDVAFVKETTVFENLPEKADRDQYELLCLNNSRAPVDAFKECHLAQVPSHAVVARSVDGKEDLIWKLLSKAQEKFGKNKSRSFQLFGSPPGQRDLLFKDSALGFLRIPSKVDSALYLGSRYLTTLKNLRETAEEVKARYTRVVWCAVGPEEQKKCQQWSQQSGQNVTCATASTTDDCIVLVLKGEADALNLDGGYIYTAGKCGLVPVLAENRKTSKYSSLDCVLRPTEGYLAVAVVKKANEGLTWNSLKDKKSCHTAVDRTAGWNIPMGLIVNQTGSCAFDEFFSQSCAPGRDPKSRLCALCAGDDQGLDKCVPNSKEKYYGYTGAFRCLAEDVGDVAFVKNDTVWENTNGESTADWAKNLNREDFRLLCLDGTRKPVTEAQSCHLAVAPNHAVVSRSDRAAHVKQVLLHQQALFGKNGKNCPDKFCLFKSETKNLLFNDNTECLAKLGGRPTYEEYLGTEYVTAIANLKKCSTSPLLEACAFLTR
**Q.** With B1 as the molecule, how does the “Lactoferrin localization at the ECM” value read?
**A.** enrichment at the ECM was observed as concentration increased
